Test results as given in PMC12136788.
Some of the results follow.

T1: UNK ZnF1-3 (human, UniProt Q9C0B0 31-174)
T1 sequence: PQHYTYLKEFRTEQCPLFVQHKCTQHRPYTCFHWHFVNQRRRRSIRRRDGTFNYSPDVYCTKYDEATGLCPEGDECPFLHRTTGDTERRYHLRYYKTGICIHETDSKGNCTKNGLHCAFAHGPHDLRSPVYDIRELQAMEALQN

B1: chr6:83912051:83912052:+_ENSMUSG00000030016_ENSMUST00000032088|mus_hu|motif|central (ssRNA)
RNA: GGGAGUUCUACAGUCCGACGAUCUGCCUUUUUAUGAGAUGAUAAAAUCAAGAUAUCCUUUAAACCACCAAAUGGUUUUGCGGAGUCAUAAACUUCUUCUACAGAAUAUCCUUUAUUAGGCAAAUUAGAGACAAGCAUCACACACAACAGAGGAUUGAGCAUCA
B2: chr18:51681570:51681571:-_ENSG00000134046_ENST00000256429|hu_mus|motif|central (ssRNA)
RNA: GGGAGUUCUACAGUCCGACGAUCUAGAUAUAUACAUCAAAAAUACAUCUAAAAAGGCAUUGGUUAGUGCUAUUAAAAAGCGGUGUGCUCAGGUACACUUUUUCUUACAGGCGAAACCCAGUGGAAAUGUUUUAAUUCUGUUUCCAACAGAGGAUUGAGCAUCA
B3: chr7:108213676:108213677:+_ENSG00000128590_ENST00000249356|hu_mus|FALSE|FALSE (ssRNA)
RNA: GGGAGUUCUACAGUCCGACGAUCUCCAUGAAAUCUAUUUUCAGUCUGUACUGUGUGUCGAUUGGUGGUAUCAAAGCCACUAAAAGAAAACAUUUUCUCCAUGUCUUCAAACAUAUCAUCAAACAAUCCGCCUCCAAAAGAAAACAACAGAGGAUUGAGCAUCA
B4: chr1:63024871:63024872:-_ENSG00000116641_ENST00000251157|hu_mus|FALSE|FALSE (ssRNA)
RNA: GGGAGUUCUACAGUCCGACGAUCGUCCCCAAUUCGGACCGGGAACAUGUGUUCAUCCAGAGCAUUGACAAGAGCAAAGAAUUUGUCUAGAUAAGGGUCUUGUGUAUGAAUGGAUGAAACAGCAACAACUUCAACAUUAAAUACCAACAGAGGAUUGAGCAUCA
B5: chr22:32879901:32879902:+_ENSG00000100225_ENST00000397426|hu_mus|hu_hu_hu_mus_False|1_58 (ssRNA)
RNA: GGGAGUUCUACAGUCCGACGAUCCUCUUCCAUACUCAUGGCAUCCUGAAUUGACUCAGCUUCAACAUUUUGACUAGGCCCUAACAUACUGUCAUCAGUCCAGGCAUCAAAUGGGGUGGCCUGUCCUUGGGAUGAAUCACUUGGCAACAGAGGAUUGAGCAUCA
B6: chr7:75932113:75932114:+_ENSG00000106211_ENST00000248553|hu_hu|hu_hu_hu_mus_False|58_98 (ssRNA)
RNA: GGGAGUUCUACAGUCCGACGAUCCUGCGACCACUCAUCCGGCAGCCGGGGCACCCCGAAAGCUUGAUCGAAGAGGCGGCUAUGCGGAGGGUACCAGUCCCGGAAUGGUUCCCAGCUCGGGCUCCGCAGCAGCGAGAAGGGCACCAACAGAGGAUUGAGCAUCA
B7: 95069485_95072215_582_CDS_ENSMUSG00000015711_ENSMUST00000015855|mouse|control|control (ssRNA)
RNA: GGGAGUUCUACAGUCCGACGAUCAAGCUCAGAACGCUUUAUAUUUAAAACUGGUAUAAAGAUGUCUUCAGCUUCAGACGUCUUUGUUAGGUAGAAGGCCAAGGCGAGAGCAGACACCAUGGAGUCUAAGUCGCAGGCUUCAUUCAACAGAGGAUUGAGCAUCA
B8: chr4:115894766:115894767:+_ENSMUSG00000028698_ENSMUST00000030464|mus_hu|mus_mus_mus_hu_True|8_58 (ssRNA)
RNA: GGGAGUUCUACAGUCCGACGAUCUUCCACACGGAAAUGUACUUCGGGUUUUCCAACGGCCAGUACCAGUCCGGCCAACUACUAGGAACAGGGUCCUCCCCCUCUCUCCUACAGAACACAACAAAAUAACAAAAUACUUUCAAGCAACAGAGGAUUGAGCAUCA
B9: chr19:16212804:16212805:+_ENSG00000167460_ENST00000300933|hu_mus|hu_hu_hu_mus_False|98_98 (ssRNA)
RNA: GGGAGUUCUACAGUCCGACGAUCAACAAUUCUGGAGAAGAACAUCAAUGUAACAUGGAACAGCAUUAAAGCUCAGUCAGAAGGCACAUGGGCAACAAUGAUCACCCCAGCAUUCUCGCUUGGAAUGCUUAAAGACAAUCUGUUCAACAGAGGAUUGAGCAUCA
B10: chr16:55990476:55990477:+_ENSMUSG00000022601_ENSMUST00000050248|mus_hu|FALSE|FALSE (ssRNA)
RNA: GGGAGUUCUACAGUCCGACGAUCUAGCUUAUGUACACUUUCACAAAUCUCUAAGACUUCUGACAUGAAAAGAUGACGAGCUAAGAUGGCUACAUCAGCCAUGCUACAGAAAUCAAAACUUAGUACAGAAGUAUAGGCAAAUUCCAACAGAGGAUUGAGCAUCA
B11: chr9:71842732:71842733:+_ENSG00000119139_ENST00000377245|hu_mus|motif|central (ssRNA)
RNA: GGGAGUUCUACAGUCCGACGAUCAUCCUGAUCAGAAUACUGCUGGCGUCUCUCCUCUGGAGAGAAAGACCGGUUGGACUCGGUUUCCGAGAUAUCCUCCACUUCAGAGUCGCUGUCGUUUAGGGCUGGGAUGUUGAUGAGGGUCAACAGAGGAUUGAGCAUCA
B12: chr14:66974463:66974464:+_ENSMUSG00000022044_ENSMUST00000074523|mus_hu|mus_mus_mus_hu_False|38_68 (ssRNA)
RNA: GGGAGUUCUACAGUCCGACGAUCUUGUAGGACGACUUAUUCAGGGGAUCGGCCAGGAAGCAGGAGCAGAACAGAGACACCAGCGGGAGCUCCUUCAUCUUCUCCUUGUAGGCAGCAAGGGUCAUGUUUCUGGGAUCUGGUGGCCAACAGAGGAUUGAGCAUCA
B13: chr4:115894766:115894767:+_ENSMUSG00000028698_ENSMUST00000030464|mus_hu|mus_mus_mus_hu_True|88_98 (ssRNA)
RNA: GGGAGUUCUACAGUCCGACGAUCUUCCACACGGAAAGUACUUGGGGGUUUCCAACGGGCCAGUACCAGUCCGGCCAAACUACCCGAACAGGGUCCUCCCCCUCUCUCCUACAGAACACAACAAAAUGCCCCCGAACUUUCAAGCAACAGAGGAUUGAGCAUCA
B14: chr18:5290039:5290040:-_ENSG00000198081_ENST00000357006|hu_hu|FALSE|FALSE (ssRNA)
RNA: GGGAGUUCUACAGUCCGACGAUCCUAGGAAAUCUUGGGAUUGUUACACAUGUAAAAAACCUUAUCUCUGAGAGCCUUUUCUAUUCUUCUUACCACAGGUCCACUCACAAAUCGCAGCUGGUAUGGACUGGUACUGCCCCAAAUCAACAGAGGAUUGAGCAUCA
B15: 67201294_67202411_752_3pUTR_ENSMUSG00000031604_ENSMUST00000034015|mouse|control|control (ssRNA)
RNA: GGGAGUUCUACAGUCCGACGAUCUAAAUUCUCUUGUGGUGAAGGAGUCUGUGCAGGAAAUAAUGCCAGGUGUCCUCAAUGACUGCACAGCCCAAACACCUUGCCAAAGUUAAGUACCAUCUUGGCAUUCUUUCCCAAUCAUAACAACAGAGGAUUGAGCAUCA
B16: chrX:106345308:106345309:+_ENSMUSG00000031246_ENSMUST00000033598|mus_hu|motif|central (ssRNA)
RNA: GGGAGUUCUACAGUCCGACGAUCUUCUCUCAUCCACUUCCGAUUCUCUUCAUUGGCUGCAAUAUCUUUUUCUUCAAAUCCGGUUUUGUUGGCUUCUAGGAAACCAAGCACAUCUUGUUGUUUCUUCUUAAUCGCUGUAGAGCCCAACAGAGGAUUGAGCAUCA
B17: chr14:76904430:76904431:+_ENSMUSG00000022010_ENSMUST00000022587|mus_mus|mus_mus_mus_hu_True|8_108 (ssRNA)
RNA: GGGAGUUCUACAGUCCGACGAUCUGCUGGAAAAAAAACCCUCGUGGAAAAAAAGAGGGAACACCAGCAGCCUUGUAUAAGCUAGAUAAAAUCUUCUGGCUUUCCGCAGCCCAGGGAGAAACAGAAAUGGUGCUGGCUAAUUUACAACAGAGGAUUGAGCAUCA
B18: chr12:57037365:57037366:-_ENSG00000110955_ENST00000262030|hu_mus|FALSE|FALSE (ssRNA)
RNA: GGGAGUUCUACAGUCCGACGAUCCUUUCCAACGCCAGCACCUCCAAAGAGUCCGAUUUUCCCACCCUUGGCGUAUGGGGCCAGCAGAUCCACAACCUUUAUCCCAGUCACCAGAAUCUCCUGCUCAACACUCAUCUCUAUGAACAACAGAGGAUUGAGCAUCA
B19: 3603523_3604810_715_CDS_ENSMUSG00000035632_ENSMUST00000038913|mouse|control|control (ssRNA)
RNA: GGGAGUUCUACAGUCCGACGAUCGUCCUGCUUAUCCUUGUCGCCUUUCUUCUUGCGUGUCUGUACCGACAGUGACUCCACUUCACUCUCAAACUGGUCCACCUGCAUAUUUAAGGUGUCAAUGGUGUUCGUGAGCCACUGGCCCAACAGAGGAUUGAGCAUCA
B20: chr9:66219764:66219765:+_ENSMUSG00000038664_ENSMUST00000042824|mus_mus|motif|central (ssRNA)
RNA: GGGAGUUCUACAGUCCGACGAUCUUCAAAAUCAGGCAACUGUGGUCCUUUGAGGCAUAAAACCUGUUGAGGCAAAGGUACGGCUUCCUUAUUGCUGAUCAGUUUAGAAUACAAAACGGUAACUCCCUCUCUUGUAGCAAUAGACAACAGAGGAUUGAGCAUCA
B21: 151023832_151026400_559_CDS_ENSMUSG00000058454_ENSMUST00000124340|mouse|control|control (ssRNA)
RNA: GGGAGUUCUACAGUCCGACGAUCGCCUCCCACAUAACCUGGCAGAAAUCUGUGGCAGAAGUCAGGAAGCCAGGAAUAAAGCAGCACCUGGAAGCUGACCCACAAGGCAUACAGUUGGGCAGCUUUAGCUGUCACAGGUGGUGUCAACAGAGGAUUGAGCAUCA
B22: chr12:90018129:90018130:-_ENSG00000070961_ENST00000261173|hu_mus|motif|central (ssRNA)
RNA: GGGAGUUCUACAGUCCGACGAUCCUCUGCAAGCCAUGGUCUUUUCUGAACCCAGAAGGUAUCGAUCACAAAAUACAACACGGGGAUGAUAACUGUGAUGGCAGACAUCAGCAGACCUGCUUUGCCAAUCUGAACAGCCAGCUUCAACAGAGGAUUGAGCAUCA

Biological target: T1, UNK ZnF1-3
Test: nsRBNS (natural sequence RNA bind-n-seq); RBNS binding buffer (assumed for nsRBNS): 25 mM Tris pH 7.5, 150 mM KCl, 3 mM MgCl2, 0.01% Triton X-100, 500 ug/ml BSA, 20 U/ml SUPERase-In, 4 C; UNK is unkempt and MSI1 is Musashi-1; names of the RNAs are library labels; protein concentration not given here; high values mean tight binding

Binder | binding signal
B1 | 0.953 enrichment R
B2 | 1.04 enrichment R
B3 | 0.756 enrichment R
B4 | 1.7 enrichment R
B5 | 1.03 enrichment R
B6 | 0.97 enrichment R
B7 | 0.786 enrichment R
B8 | 1.13 enrichment R
B9 | 1.2 enrichment R
B10 | 0.841 enrichment R
B11 | 0.75 enrichment R
B12 | 2.34 enrichment R
B13 | 1.16 enrichment R
B14 | 1.11 enrichment R
B15 | 0.868 enrichment R
B16 | 0.451 enrichment R
B17 | 2.45 enrichment R
B18 | 1.58 enrichment R
B19 | 1.03 enrichment R
B20 | 0.879 enrichment R
B21 | 1.31 enrichment R
B22 | 1.25 enrichment R
